The source of these data is publication PMC4336329 (PLoS ONE, 2015).

Each structure is given as a SMILES string. The campaign covered roughly 310,000 compounds. About 2,200 (0.71%) showed an effect of 50% or more. The effect is printed as a negative number. The list shows a part of the results.

The target in this assay is human ether-à-go-go-related gene (hERG) potassium channel (human, UniProt Q12809). In words: primary screen, population patch clamp on CHO cells stably expressing hERG.
Chain of human ether-à-go-go-related gene (hERG) potassium channel (Q12809 whole entry, looked up): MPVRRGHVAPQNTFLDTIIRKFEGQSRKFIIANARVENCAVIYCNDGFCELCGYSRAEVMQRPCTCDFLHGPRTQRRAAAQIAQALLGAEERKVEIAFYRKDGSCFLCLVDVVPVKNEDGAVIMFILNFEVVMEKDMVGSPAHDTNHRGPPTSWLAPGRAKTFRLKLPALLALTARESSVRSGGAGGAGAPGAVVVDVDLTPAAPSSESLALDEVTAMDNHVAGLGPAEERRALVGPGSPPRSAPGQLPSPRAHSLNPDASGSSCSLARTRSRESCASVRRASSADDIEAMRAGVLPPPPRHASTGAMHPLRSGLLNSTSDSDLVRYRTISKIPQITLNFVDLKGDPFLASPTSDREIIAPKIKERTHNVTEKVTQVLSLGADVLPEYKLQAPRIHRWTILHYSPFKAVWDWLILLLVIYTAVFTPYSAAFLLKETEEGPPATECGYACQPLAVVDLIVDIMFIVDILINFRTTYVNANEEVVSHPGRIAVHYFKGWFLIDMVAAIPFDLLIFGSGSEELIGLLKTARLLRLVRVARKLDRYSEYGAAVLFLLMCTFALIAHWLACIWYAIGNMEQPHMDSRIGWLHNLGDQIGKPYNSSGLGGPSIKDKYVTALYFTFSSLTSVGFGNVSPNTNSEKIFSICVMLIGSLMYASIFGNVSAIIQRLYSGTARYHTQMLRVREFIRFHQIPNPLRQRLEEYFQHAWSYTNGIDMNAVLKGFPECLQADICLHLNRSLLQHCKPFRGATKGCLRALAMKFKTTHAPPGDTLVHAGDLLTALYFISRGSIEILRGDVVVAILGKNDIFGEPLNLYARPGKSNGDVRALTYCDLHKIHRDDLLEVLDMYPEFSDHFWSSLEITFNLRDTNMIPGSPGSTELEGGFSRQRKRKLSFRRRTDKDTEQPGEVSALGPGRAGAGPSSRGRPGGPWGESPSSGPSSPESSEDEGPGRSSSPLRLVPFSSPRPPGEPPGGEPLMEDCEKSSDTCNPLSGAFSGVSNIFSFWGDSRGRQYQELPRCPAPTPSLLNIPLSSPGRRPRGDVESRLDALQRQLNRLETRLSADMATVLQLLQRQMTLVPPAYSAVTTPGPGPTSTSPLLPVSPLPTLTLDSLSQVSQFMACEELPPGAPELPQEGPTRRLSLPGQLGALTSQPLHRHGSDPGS
Regarding `C/C(=N\NC(=S)NC1CCCCC1)c1ccccc1`, the “hERG current change (%, negative = inhibition) at 1uM” value is listed as -3.27%.

With `O=C(O)CCCCN1C(=O)/C(=C\c2ccc(OCc3ccccc3)c(OCc3ccccc3)c2)SC1=S`, the “hERG current change (%, negative = inhibition) at 1uM” value came to 11.8%. Under `COCCNC(=O)NC1(C(F)(F)F)Oc2ccc(Cl)cc2O1` (stereo not drawn) stands -5.48%; under `Cc1ccc(C(=O)NCCCNC(=O)c2cccnc2)cc1`, 11.9%.

On to `Cn1ncc2c1ncn1nc(CCc3ccccc3)nc21`, for which the “hERG current change (%, negative = inhibition) at 1uM” value was found to be 2.78%. Under `CN1CCN(C(=O)c2cccc(NS(=O)(=O)c3ccc(Br)cc3)c2)CC1.Cl` stands 5.4%. For the compound `COc1ccc(C)cc1S(=O)(=O)N(C)CC(=O)N1CCN(c2ccccc2)CC1`, the “hERG current change (%, negative = inhibition) at 1uM” value is listed as -1.57%.

Take `COc1ccc(CCNC(=O)c2cnc3ccccc3n2)cc1`: the “hERG current change (%, negative = inhibition) at 1uM” value is given as 9.2%. Turning to `Cc1ccc(C(=O)NC2CCCCCC2)cc1S(=O)(=O)N1CCOCC1`, the “hERG current change (%, negative = inhibition) at 1uM” value is given as 12.4%. Consider `CCOC(=O)C1CCCN(C(=O)CN(c2ccc(OC)cc2)S(=O)(=O)c2c(C)noc2C)C1` (stereo not drawn), for which the “hERG current change (%, negative = inhibition) at 1uM” value is 12%. On to `CC(NS(=O)(=O)c1ccc(OCC(=O)N2CCOCC2)c(Cl)c1)c1ccccc1` (stereo not drawn), for which the “hERG current change (%, negative = inhibition) at 1uM” value is on record as 7.32%. As to `O=C(CSc1nnnn1C1CCCCC1)NCc1cccc(C(=O)O)c1`, the “hERG current change (%, negative = inhibition) at 1uM” value is reported as 3.74%. For the compound `Cl.c1ccc(CSc2nnc(-c3cccnc3)o2)cc1`, the “hERG current change (%, negative = inhibition) at 1uM” value was -0.8%. Under `CN(Cc1ccccc1)C(=O)C1CCN(S(=O)(=O)c2cccc3nonc23)CC1` stands 8.2%; under `COc1ccc2c(c1)C(=O)/C(=C/C=C/c1ccccc1)CC2`, 18.3%; under `COc1ccc(OCCCC(=O)NNC(=O)c2ccncc2)cc1`, 6.78%.

For the compound `O=S(=O)(c1cccs1)N1CCN(c2ccnc3cc(Cl)ccc23)CC1`, the “hERG current change (%, negative = inhibition) at 1uM” value is -2.74%. Consider `O=[N+]([O-])c1cc(S(=O)(=O)NCCN2CCOCC2)ccc1Sc1nnnn1-c1ccccc1`, for which the “hERG current change (%, negative = inhibition) at 1uM” value is listed as -3.53%. Under `CC(=O)CSc1nnc(-c2ccncc2)n1C` stands 22.5%. In the case of `COc1ccc(OC)c(NC(=O)C(CCS(C)(=O)=O)NC(C)=O)c1` (stereo not drawn), the “hERG current change (%, negative = inhibition) at 1uM” value is 12.8%.

`Cc1ccc(-c2csc(NC(=O)Cc3ccc(F)cc3)n2)o1`: the “hERG current change (%, negative = inhibition) at 1uM” value is 21.7%.

On to `COc1cc(C(=O)O/N=C2\C=CC(=O)C=C2C)cc(OC)c1OC`, for which the “hERG current change (%, negative = inhibition) at 1uM” value was -3.01%. As for `COc1cc(C(c2nnnn2C2CCCC2)N2CCN(C)CC2)cc(OC)c1OC.Cl` (stereo not drawn), the figure is 13.5%; as for `Cc1ccc(N2CC(C(=O)Nc3ccccc3N3CCCC3)CC2=O)cc1` (stereo not drawn), 10.6%.
